No constants are given. Whether binding was seen depends on the method and setting. Binding seen in cells or lysates may run through a third protein. Some binding calls cover weakened binding; strength is not graded here. Sequences can lack the tags named with a protein.
T1: GST–PTP-PEST-C231S fusion protein (catalytically inactive trapping mutant) (UniProt Q05209)
T1 sequence: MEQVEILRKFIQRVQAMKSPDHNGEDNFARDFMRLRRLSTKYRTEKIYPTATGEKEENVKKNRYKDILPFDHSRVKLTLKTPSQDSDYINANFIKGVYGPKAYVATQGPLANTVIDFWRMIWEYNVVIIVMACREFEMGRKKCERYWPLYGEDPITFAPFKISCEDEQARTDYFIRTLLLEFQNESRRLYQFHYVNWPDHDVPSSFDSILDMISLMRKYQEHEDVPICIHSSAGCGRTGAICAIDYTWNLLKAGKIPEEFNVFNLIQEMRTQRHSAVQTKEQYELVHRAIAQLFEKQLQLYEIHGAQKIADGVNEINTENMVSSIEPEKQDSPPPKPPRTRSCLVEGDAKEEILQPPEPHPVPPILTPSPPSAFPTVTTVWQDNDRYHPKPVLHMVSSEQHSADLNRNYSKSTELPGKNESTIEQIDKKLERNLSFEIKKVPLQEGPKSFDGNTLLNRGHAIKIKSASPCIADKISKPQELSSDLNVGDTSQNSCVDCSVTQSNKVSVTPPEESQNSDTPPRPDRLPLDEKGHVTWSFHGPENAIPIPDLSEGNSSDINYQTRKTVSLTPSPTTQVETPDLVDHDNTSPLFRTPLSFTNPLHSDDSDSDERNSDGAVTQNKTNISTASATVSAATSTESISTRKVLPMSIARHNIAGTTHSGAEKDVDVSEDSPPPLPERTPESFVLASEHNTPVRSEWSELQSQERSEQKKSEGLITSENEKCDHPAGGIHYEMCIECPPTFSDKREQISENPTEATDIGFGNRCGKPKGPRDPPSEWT

T2: GST–PTP-PEST-WT fusion protein (UniProt Q05209)
T2 sequence: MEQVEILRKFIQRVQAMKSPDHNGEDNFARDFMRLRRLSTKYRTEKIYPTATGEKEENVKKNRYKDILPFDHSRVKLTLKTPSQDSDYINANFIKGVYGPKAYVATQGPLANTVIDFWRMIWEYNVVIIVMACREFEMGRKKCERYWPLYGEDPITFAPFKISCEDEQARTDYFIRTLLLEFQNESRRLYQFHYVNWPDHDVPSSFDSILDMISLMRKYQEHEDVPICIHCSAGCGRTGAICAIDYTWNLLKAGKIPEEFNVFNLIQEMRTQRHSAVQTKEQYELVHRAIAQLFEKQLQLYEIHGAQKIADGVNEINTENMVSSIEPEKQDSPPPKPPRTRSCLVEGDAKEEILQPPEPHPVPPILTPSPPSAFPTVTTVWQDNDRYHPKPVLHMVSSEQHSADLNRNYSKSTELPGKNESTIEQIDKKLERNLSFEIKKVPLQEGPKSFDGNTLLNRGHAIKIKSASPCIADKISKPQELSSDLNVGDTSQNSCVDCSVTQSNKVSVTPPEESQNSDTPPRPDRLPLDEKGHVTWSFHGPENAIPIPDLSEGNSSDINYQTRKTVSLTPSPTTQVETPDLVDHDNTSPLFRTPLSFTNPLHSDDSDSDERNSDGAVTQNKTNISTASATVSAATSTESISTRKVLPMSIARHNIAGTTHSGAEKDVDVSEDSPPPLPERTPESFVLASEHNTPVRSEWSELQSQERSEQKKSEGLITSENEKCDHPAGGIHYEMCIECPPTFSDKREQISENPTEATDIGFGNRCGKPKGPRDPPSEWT

B1: YFP-tagged full-length p120-1A isoform (protein, UniProt P30999 1-938)
chain: MDDSEVESTASILASVKEQEAQFEKLTRALEEERRHVSAQLERVRVSPQDANSLMANGTLTRRHQNGRFVGDADLERQKFSDLKLNGPQDHNHLLYSTIPRMQEPGQIVETYTEEDPEGAMSVVSVETTDDGTTRRTETTVKKVVKTMTTRTVQPVPMGPDGLPVDASAVSNNYIQTLGRDFRKNGNGGPGPYVGQAGTATLPRNFHYPPDGYGRHYEDGYPGGSDNYGSLSRVTRIEERYRPSMEGYRAPSRQDVYGPQPQVRVGGSSVDLHRFHPEPYGLEDDQRSMGYDDLDYGMMSDYGTARRTGTPSDPRRRLRSYEDMIGEEVPPDQYYWAPLAQHERGSLASLDSLRKGMPPPSNWRQPELPEVIAMLGFRLDAVKSNAAAYLQHLCYRNDKVKTDVRKLKGIPILVGLLDHPKKEVHLGACGALKNISFGRDQDNKIAIKNCDGVPALVRLLRKARDMDLTEVITGTLWNLSSHDSIKMEIVDHALHALTDEVIIPHSGWEREPNEDCKPRHIEWESVLTNTAGCLRNVSSERSEARRKLRECDGLVDALIFIVQAEIGQKDSDSKLVENCVCLLRNLSYQVHREIPQAERYQEALPTVANSTGPHAASCFGAKKGKDEWFSRGKKPTEDPANDTVDFPKRTSPARGYELLFQPEVVRIYISLLKESKTPAILEASAGAIQNLCAGRWTYGRYIRSALRQEKALSAIAELLTSEHERVVKAASGALRNLAVDARNKELIGKHAIPNLVKNLPGGQQNSSWNFSEDTVVSILNTINEVIAENLEAAKKLRETQGIEKLVLINKSGNRSEKEVRAAALVLQTIWGYKELRKPLEKEGWKKSDFQVNLNNASRSQSSHSYDDSTLPLIDRNQKSDKKPDREEIPMSNMGSNTKSLDNNYSTLNERGDHNRTLDRSGDLGDMEPLKGAPLMQKI
B2: YFP–p120-1A Y335F (protein, UniProt P30999 1-938)
chain: MDDSEVESTASILASVKEQEAQFEKLTRALEEERRHVSAQLERVRVSPQDANSLMANGTLTRRHQNGRFVGDADLERQKFSDLKLNGPQDHNHLLYSTIPRMQEPGQIVETYTEEDPEGAMSVVSVETTDDGTTRRTETTVKKVVKTMTTRTVQPVPMGPDGLPVDASAVSNNYIQTLGRDFRKNGNGGPGPYVGQAGTATLPRNFHYPPDGYGRHYEDGYPGGSDNYGSLSRVTRIEERYRPSMEGYRAPSRQDVYGPQPQVRVGGSSVDLHRFHPEPYGLEDDQRSMGYDDLDYGMMSDYGTARRTGTPSDPRRRLRSYEDMIGEEVPPDQYFWAPLAQHERGSLASLDSLRKGMPPPSNWRQPELPEVIAMLGFRLDAVKSNAAAYLQHLCYRNDKVKTDVRKLKGIPILVGLLDHPKKEVHLGACGALKNISFGRDQDNKIAIKNCDGVPALVRLLRKARDMDLTEVITGTLWNLSSHDSIKMEIVDHALHALTDEVIIPHSGWEREPNEDCKPRHIEWESVLTNTAGCLRNVSSERSEARRKLRECDGLVDALIFIVQAEIGQKDSDSKLVENCVCLLRNLSYQVHREIPQAERYQEALPTVANSTGPHAASCFGAKKGKDEWFSRGKKPTEDPANDTVDFPKRTSPARGYELLFQPEVVRIYISLLKESKTPAILEASAGAIQNLCAGRWTYGRYIRSALRQEKALSAIAELLTSEHERVVKAASGALRNLAVDARNKELIGKHAIPNLVKNLPGGQQNSSWNFSEDTVVSILNTINEVIAENLEAAKKLRETQGIEKLVLINKSGNRSEKEVRAAALVLQTIWGYKELRKPLEKEGWKKSDFQVNLNNASRSQSSHSYDDSTLPLIDRNQKSDKKPDREEIPMSNMGSNTKSLDNNYSTLNERGDHNRTLDRSGDLGDMEPLKGAPLMQKI

Assays:
[1] = target: T1, GST–PTP-PEST-C231S fusion protein (catalytically inactive trapping mutant); assay: pull-down; substrate trapping: 10 µg GST fusion protein with 1 mg lysate of pervanadate-treated transfected cells (HEK 293T named for Fig. 1B and 6B), modified RIPA buffer, 4°C, 1 hour; western blot with anti-YFP; only the target purified
[2] = target: T2, GST–PTP-PEST-WT fusion protein; assay: condition: 10 µg fusion protein per 1 mg of cell lysate; pull-down; substrate trapping: 10 µg GST fusion protein with 1 mg lysate of pervanadate-treated transfected cells (HEK 293T named for Fig. 1B and 6B), modified RIPA buffer, 4°C, 1 hour; western blot with anti-YFP; only the target purified
[3] = target: T1, GST–PTP-PEST-C231S fusion protein (catalytically inactive trapping mutant); assay: as above

Row | Binder | binding [1] | binding [2] | binding [3]
1 | B1 | binds | no binding | 
2 | B2 |  |  | no binding

— PMC4007762
